Measured values taken from PubChem BioAssay AID588342 (National Center for Advancing Translational Sciences (NCATS), 2011).
Values joined by “and” are separate entries in the source; they are usually repeats but may differ in a detail not shown here. Identical values can stand only once. Among all 360,000 compounds or so, about 25,000 (6.9%) were called active. The shares of active, inactive and inconclusive entries below differ from those in the screen. Calls come from the whole dose curve; as a rule, active = well fitted inhibition curve with a large enough effect; inconclusive = small, poorly fitted or top-dose-only effect; inactive = flat fitted curve, though single readings scatter. Where the call is inconclusive, the potency comes from a doubtful curve fit.

What follows are molecules tested against Luciferin 4-monooxygenase (Photinus pyralis) (UniProt P08659) (assay: qHTS profiling assay for firefly luciferase inhibitor/activator using purifed enzyme and Km concentrations of substrates (counterscreen for miR-21 project)). Details: purified FLuc, luminescence inhibition; series mostly up to 57.5 µM; activity change, negative = inhibition: at the top concentration.
Chain of UniProt P08659 (P08659 whole entry, looked up): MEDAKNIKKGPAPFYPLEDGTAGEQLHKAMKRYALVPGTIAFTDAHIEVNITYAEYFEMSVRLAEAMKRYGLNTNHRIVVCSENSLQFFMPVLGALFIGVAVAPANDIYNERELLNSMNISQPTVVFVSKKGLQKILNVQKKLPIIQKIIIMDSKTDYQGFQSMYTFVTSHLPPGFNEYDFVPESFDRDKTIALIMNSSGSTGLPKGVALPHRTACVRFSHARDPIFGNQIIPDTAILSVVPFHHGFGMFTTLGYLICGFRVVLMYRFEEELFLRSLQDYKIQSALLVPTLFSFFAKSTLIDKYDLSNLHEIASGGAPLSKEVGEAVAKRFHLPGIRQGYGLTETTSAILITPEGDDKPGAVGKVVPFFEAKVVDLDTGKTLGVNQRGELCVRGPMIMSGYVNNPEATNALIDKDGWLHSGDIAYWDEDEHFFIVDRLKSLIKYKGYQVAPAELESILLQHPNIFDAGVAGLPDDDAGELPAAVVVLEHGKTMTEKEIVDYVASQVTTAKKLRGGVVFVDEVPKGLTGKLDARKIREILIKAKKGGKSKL
Summary of the method: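 Purified P. pyralis luciferase, 10 nM final, with Km-level 10 uM D-luciferin and 10 uM ATP in 50 mM Tris acetate pH 7.5, 10 mM Mg acetate, 0.01% Tween-20, 0.05% BSA; 6-point qHTS titration about 60 µM downward; luminescence read.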
Note: nearly all actives have a fitted effect of over 55% in size.
Potency is the fitted concentration of half-maximal effect; tags give direction and shape of the fitted curve.
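Throughout, for activity change, negative = inhibition: plate controls were vehicle for no effect and reference inhibitor for full effect.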

SMILES | Potency | activity change, negative = inhibition
CC(C)(C)OC(=O)NCCCCCC(=O)N/N=C/c1coc2ccccc2c1=O | inconclusive: 37.9 µM [inhibitor, single point] | 
CN(c1ccccc1)S(=O)(=O)c1ccc(NC(=S)Nc2ccccc2)cc1 |  | inactive: 4.45%
Cc1ccc(C2=NN=C(NC(=O)CSc3nnc4c5ccccc5n(C)c4n3)SC2)cc1 | inconclusive: 15.1 µM [inhibitor, partial curve] | 
COc1cccc(NC(=O)c2ccco2)c1 | inconclusive: 26.9 µM [inhibitor, single point] | 
CCCC(=O)Nc1ccc(C(=O)NNC(=S)NC(=O)c2ccc(Br)o2)cc1 | inconclusive: 23.9 µM [inhibitor, partial curve, poor fit] | 
O=C(O)COc1ccc(/C=N/n2c(COc3ccccc3)nc3ccccc3c2=O)cc1 | inconclusive: 30.1 µM [inhibitor, single point] | 
Cc1cnc(CN(C)C(=O)CC2C(=O)NCCN2CCCc2ccccc2)[nH]1 (stereo unspecified) |  | inactive: 4.01%
O=C(Nc1ccc2c(c1)OCCO2)C1CCCC1 | active: 9.53 µM | 
COc1ccc(NC(=O)CCCC(=O)c2ccccc2)cc1 | inconclusive: 37.9 µM [inhibitor, single point] | 
O=C1c2ccccc2CCC12N=NCC2c1ccc(Cl)cc1 (stereo unspecified) | active: 21.3 µM | 
N#C/C(=C/c1ccc(O)cc1)C(=O)NCc1ccc(Cl)cc1 | inconclusive: 19 µM [inhibitor, partial curve, poor fit] | 
O=C(Nc1ccc(Cl)c(S(=O)(=O)Nc2ccccc2Cl)c1)c1cccs1 | inconclusive: 37.9 µM [inhibitor, single point] | 
O=C(Nc1ccc(-c2cn3cccnc3n2)cc1)c1ccccc1F | inconclusive: 23.9 µM [inhibitor, partial curve] | 
Cc1cccc(CSc2nc3ccncc3n2Cc2ccc(C(=O)O)cc2)c1 | inconclusive: 26.9 µM [inhibitor, partial curve] | 
Cc1cccc(OCCOC(=O)CN2C(=O)NC3(CCCC3)C2=O)c1 |  | inactive: -0.825%
CCOc1ccccc1CNC(=O)CCCn1nc(C)c2sc3ccccc3c2c1=O | inconclusive: 9.53 µM [inhibitor, partial curve, poor fit] | 
CCN(C(=O)COC(=O)CNS(=O)(=O)c1ccccc1)c1ccccc1 |  | inactive: 1.17%
COc1ccc(OCC(=O)N/N=C(\C)c2ccc(-n3ccnc3)cc2)cc1 | active: 6.01 µM | 
CC(=O)Nc1cccc(C(=O)OCC(=O)Nc2nnc(-c3ccccc3)o2)c1 | inconclusive: 21.3 µM [inhibitor, partial curve, poor fit] | 
O=c1c2oc3ccccc3c2ncn1Cc1ccccc1F | inconclusive: 37.9 µM [inhibitor, partial curve, poor fit] | 
Cc1ccc(SCCC(=O)Nc2cccc(N(C)S(C)(=O)=O)c2)cc1 | inconclusive: 23.9 µM [inhibitor, partial curve, poor fit] | 
Oc1ccccc1/C=N/Nc1ncc(Br)cn1 | inconclusive: 6.01 µM [inhibitor, full curve] | 

SMILES | Potency | activity change, negative = inhibition
COc1ccc(CNC(=O)C2COc3ccccc3O2)c(OC)c1 (stereo unspecified) | inconclusive: 21.3 µM [inhibitor, single point] | 
O=C1CCC(=O)N1c1ccc(CSc2nc3ccccc3[nH]2)cc1 | inconclusive: 26.9 µM [inhibitor, single point] | 
COc1ccc(/C=C2\SC(N3CCc4ccccc4C3)=NC2=O)cc1OC | inconclusive: 23.9 µM [inhibitor, single point] | 
Cn1nnnc1SCc1ccc(C(=O)Nc2ccccc2F)cc1 | inconclusive: 19 µM [inhibitor, partial curve] | 
COc1cccc(C(=O)C(C#N)=C(SC)SC)c1 | inconclusive: 23.9 µM [inhibitor, single point] | 
CCc1nc2ccccc2n1CCCCOc1ccc(Cl)cc1 | inconclusive: 26.9 µM [inhibitor, partial curve, poor fit] | 
CCOc1ccccc1Nc1nc2ccccc2n1C(C)C | inconclusive: 30.1 µM [inhibitor, partial curve, poor fit] | 
Cc1ccc(NC(=O)CN(C)Cc2nc3c(Br)cc(Br)cc3c(=O)[nH]2)cc1 | inconclusive: 33.8 µM [inhibitor, partial curve, poor fit] | 
COc1cccc(-n2c(-c3ccco3)nc3c(cnn3-c3ccccc3C)c2=O)c1 |  | inactive: -1.87%
CSc1ccc(/C=N/n2c(Cc3ccc(Br)cc3)n[nH]c2=S)cc1 | inconclusive: 37.9 µM [inhibitor, partial curve, poor fit] | 
COc1ccc(NC(=O)/C(Cl)=C(/Cl)S(=O)Cc2ccccc2Cl)cn1 (stereo unspecified) | inconclusive: 26.9 µM [inhibitor, partial curve, poor fit] | 
COc1ccc(-c2nc(Cn3c(SCc4cccc(F)c4)nc4cccnc43)c(C)o2)cc1 | inconclusive: 16.9 µM [inhibitor, partial curve, poor fit] | 
CN1CCN(C(=O)c2cc(-c3ccccc3)on2)CC1 | inconclusive: 19 µM [inhibitor, partial curve] | 
Cc1cc(/C=C2\SC(=O)NC2=O)c(C)n1-c1ccc(N(C)C)cc1 |  | inactive: -2.75%
Cc1ccc(C(=O)OCC(=O)c2ccc(Cl)s2)s1 | active: 2.69 µM | 
O=C(NCCc1cnc[nH]1)c1ccc(-c2ccccc2)cc1 | inconclusive: 23.9 µM [inhibitor, single point] | 
O=C(c1cn(-c2ccccc2)nc1-c1ccccc1)N1CCOCC1 | inconclusive: 26.9 µM [inhibitor, single point] | 
O=C(Nc1ccc(F)cc1F)c1cc2ccc3cccnc3c2[nH]1 | inconclusive: 0.536 µM [inhibitor, full curve, poor fit] | 
Cc1ccccc1Nc1cc(C(=O)NCC2CCCO2)c2ccccc2n1 (stereo unspecified) | inconclusive: 16.9 µM [inhibitor, partial curve] | 
Cc1occc1-c1nnc(SCC(=O)Nc2ccccn2)o1 |  | inactive: -2.68%
Cc1ccc(-c2cc(C(=O)NN3CCOCC3)c3cc(Br)ccc3n2)o1 | inconclusive: 15.1 µM [inhibitor, partial curve] | 
COc1ccc(OC)c(Cc2nnc(CCC(=O)N3CCCCC3)o2)c1 | inconclusive: 26.9 µM [inhibitor, single point] | 

SMILES | Potency | activity change, negative = inhibition
Cc1ccc(NC(=O)Cn2c(CCC(=O)O)ccc2-c2cccs2)cc1Cl | inconclusive: 26.9 µM [inhibitor, partial curve, poor fit] and inconclusive: 23.9 µM [inhibitor, single point] | 
CC1=NOC(=O)/C1=C\c1ccc(-c2ccc(Cl)cc2Cl)o1 | active: 5.36 µM | 
COc1ccc(/C=C/C(=O)OCC(=O)Nc2cc(C(N)=O)cc(C(N)=O)c2)cc1 | inconclusive: 21.3 µM [inhibitor, partial curve] | 
CCOC(=O)CSc1nc(N)c2c3c(sc2n1)CCCC3 | active: 9.53 µM | 
Cc1nc(COC(=O)c2cc(O)c3ccccc3c2O)cs1 | active: 5.36 µM | 
Cc1oc2c(c1C(=O)Nc1cccc(C(=O)O)c1)CCCC2 | active: 19 µM | 
CCc1ccc2nc(N3CCN(C(=O)c4ccccc4)CC3)sc2c1 | inconclusive: 12 µM [inhibitor, partial curve, poor fit] | 
CCOC(=O)Nc1cccc(NC(=O)c2cc(OC)cc(OC)c2)c1 | inconclusive: 19 µM [inhibitor, partial curve, poor fit] | 
Cc1ccc(C)c(N2CCN(C(=O)C3CCN(S(=O)(=O)c4ccc5[nH]c(=O)oc5c4)CC3)CC2)c1 |  | inactive: 5.04%
COc1ccccc1C#Cc1ccc2c(=O)c3ccccc3n(C)c2c1 | inconclusive: 10.7 µM [inhibitor, partial curve, poor fit] | 
Cc1cc2cc(CNC(=O)c3cc4ccccc4o3)ccc2n1C | inconclusive: 23.9 µM [inhibitor, partial curve, poor fit] | 
Cc1ccc(NC(=O)C2CCN(S(=O)(=O)c3ccc4ccccc4c3)CC2)nc1 | inconclusive: 16.9 µM [inhibitor, partial curve] | 
CCOc1cc(C2C(C(=O)Nc3ccccc3)=C(C)Nc3ncnn32)cc(Br)c1O (stereo unspecified) |  | inactive: -9.01%
COc1ccc(NS(=O)(=O)c2cccc(-c3n[nH]c(=S)n3Cc3ccccc3)c2)cc1 | inconclusive: 23.9 µM [inhibitor, partial curve] | 
O=C(CCC(=O)OCC(=O)c1ccc(-c2ccccc2)cc1)Nc1cccc2cccnc12 | inconclusive: 5.36 µM [inhibitor, partial curve] | 
Cc1cc(C(=O)CN2CCCC(C)C2)c(C)n1-c1ccc(F)cc1 (stereo unspecified) | active: 15.1 µM | 
O=C(NC1CCCCC1)c1ccc(CSc2nc3ccncc3n2Cc2ccccc2)cc1 | inconclusive: 23.9 µM [inhibitor, partial curve] | 
CCOc1nc(NC(=O)NS(=O)(=O)c2cccc(Cl)c2)nc(-c2ccccc2)n1 | inconclusive: 16.9 µM [inhibitor, partial curve] | 
COc1ccc(OC)c(CNC(=O)c2ccc(Sc3ccc(Cl)cc3)c(NC(C)=O)c2)c1 | inconclusive: 16.9 µM [inhibitor, partial curve, poor fit] | 
NNc1nc(Nc2ccccc2)nc(N2CCCCC2)n1 | inconclusive: 26.9 µM [inhibitor, partial curve] | 
Cc1ccc2onc(CC(=O)N3CCN(c4ccc(Cl)cc4)CC3)c2c1 | inconclusive: 26.9 µM [inhibitor, partial curve, poor fit] | 
CCOC(=O)c1ccc2[nH]cc(C(C)=O)c(=O)c2c1 | inconclusive: 30.1 µM [inhibitor, partial curve, poor fit] | 
